Measured values published in the supplement of paper PMC4967469.
A lower IC50 marks a more sensitive line; a fit beyond the top or the lowest dose is shown as a bound at that dose. The AUC spans the tested range (256-fold, ending at the top dose) of the same fit; values near 1 show little effect. For part of these data: Any top dose called inferred comes from the curve model; the source does not state it.

Experiments:
Assay in all cases: Viability of human cancer cell lines after 72 h of drug (GDSC screen)
EHT 1864 = compound: O=c1cc(CN2CCOCC2)occ1OCCCCCSc1ccnc2cc(C(F)(F)F)ccc12 [EHT 1864]; conditions: top dose 10 µM; top dose inferred
Method: (§1)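 Human cancer cell lines in 384-well plates, medium with 10% serum, drug for 72 h over a 256-fold dose range (nine 2-fold or five 4-fold steps up to the top dose). Adherent lines were fixed and stained with the nucleic acid dye Syto60, suspension lines read with resazurin; signal relative to control wells, capped at 0 and 100%. One two-parameter sigmoid per drug and line, fitted in a mixed model over all curves with the slope shared within a line.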

NU-7441 = compound: O=c1cc(N2CCOCC2)oc2c(-c3cccc4c3sc3ccccc34)cccc12 [NU-7441]; conditions: top dose 2 µM; top dose inferred
Method: as §1

QL-XI-92 = compound: C=CC(=O)Nc1cc(NC(=O)c2ccc(C)c(NC(=O)c3ccno3)c2)cc(C(F)(F)F)c1 [QL-XI-92]; conditions: top dose 10.24 µM; top dose inferred
Method: as §1

Vinorelbine = compound: CCC1=C[C@@H]2CN(C1)Cc1c([nH]c3ccccc13)[C@@](C(=O)OC)(c1cc3c(cc1OC)N(C)[C@H]1[C@@](O)(C(=O)OC)[C@H](OC(C)=O)[C@]4(CC)C=CCN5CC[C@]31[C@@H]54)C2 [Vinorelbine]; conditions: top dose 0.064 µM; top dose inferred
Method: as §1

S-Trityl-L-cysteine = compound: N[C@@H](CSC(c1ccccc1)(c1ccccc1)c1ccccc1)C(=O)O [S-Trityl-L-cysteine]; conditions: top dose 5.12 µM; top dose inferred
Method: as §1

Gefitinib = compound: COc1cc2ncnc(Nc3ccc(F)c(Cl)c3)c2cc1OCCCN1CCOCC1 [Gefitinib]; conditions: top dose 0.5 µM
Method: as §1

WHI-P97 = compound: COc1cc2ncnc(Nc3cc(Br)c(O)c(Br)c3)c2cc1OC [WHI-P97]; conditions: top dose 10.24 µM; top dose inferred
Method: as §1

XL-184 = compound: COc1cc2nccc(Oc3ccc(NC(=O)C4(C(=O)Nc5ccc(F)cc5)CC4)cc3)c2cc1OC [XL-184]; conditions: top dose 5.12 µM; top dose inferred
Method: as §1

Phenformin = compound: N=C(N)NC(=N)NCCc1ccccc1 [Phenformin]; conditions: top dose 4000 µM; top dose inferred
Method: as §1

AG-014699 = compound: CNCc1ccc(-c2[nH]c3cc(F)cc4c3c2CCNC4=O)cc1 [AG-014699]; conditions: top dose 5 µM; top dose inferred
Method: as §1

| Cell Line | AUC (EHT 1864) | IC50 (EHT 1864) [µM] | AUC (NU-7441) | IC50 (NU-7441) [µM] | AUC (QL-XI-92) | IC50 (QL-XI-92) [µM] | AUC (Vinorelbine) | IC50 (Vinorelbine) [µM] | AUC (S-Trityl-L-cysteine) | IC50 (S-Trityl-L-cysteine) [µM] | AUC (Gefitinib) | IC50 (Gefitinib) [µM] | AUC (WHI-P97) | IC50 (WHI-P97) [µM] | AUC (XL-184) | IC50 (XL-184) [µM] | AUC (Phenformin) | IC50 (Phenformin) [µM] | AUC (AG-014699) | IC50 (AG-014699) [µM] |
| --- | --- | --- | --- | --- | --- | --- | --- | --- | --- | --- | --- | --- | --- | --- | --- | --- | --- | --- | --- | --- |
| A704 (kidney, adherent) | 0.972 | > 10 | 0.909 | > 2 | 0.958 | > 10.2 | 0.987 | > 0.064 | 0.985 | > 5.12 | 0.989 | > 0.5 | 0.983 | > 10.2 | 0.929 | > 5.12 |  |  |  |  |
| BB65-RCC (kidney, adherent) | 0.949 | > 10 |  |  | 0.96 | > 10.2 | 0.807 | 0.039 | 0.781 | 2.46 | 0.919 | > 0.5 | 0.977 | > 10.2 | 0.924 | > 5.12 | 0.71 | 1080 | 0.96 | > 5 |
| DB (B-cell lymphoma, suspension) |  |  | 0.932 | > 2 | 0.953 | > 10.2 | 0.64 | 0.0103 | 0.889 | > 5.12 | 0.965 | > 0.5 | 0.956 | > 10.2 | 0.929 | > 5.12 | 0.346 | 88.2 |  |  |
| DOHH-2 (B-cell lymphoma, suspension) |  |  | 0.984 | > 2 |  |  | 0.592 | 0.00709 | 0.602 | 0.606 | 0.854 | 0.382 |  |  |  |  |  |  |  |  |
| EHEB (lymphoid neoplasm, suspension) | 0.978 | > 10 | 0.916 | > 2 |  |  | 0.841 | > 0.064 | 0.85 | > 5.12 | 0.977 | > 0.5 |  |  |  |  |  |  | 0.959 | > 5 |
| IST-SL2 (small cell lung carcinoma, suspension) | 0.964 | > 10 | 0.985 | > 2 | 0.764 | 3.68 | 0.754 | 0.0213 | 0.746 | 1.61 | 0.977 | > 0.5 |  |  |  |  | 0.986 | > 4000 | 0.965 | > 5 |
| KASUMI-1 (acute myeloid leukaemia, suspension) | 0.934 | > 10 |  |  | 0.616 | 1.34 | 0.717 | 0.0165 | 0.973 | > 5.12 | 0.944 | > 0.5 |  |  |  |  |  |  | 0.959 | > 5 |
| KMS-12-BM (myeloma, suspension) | 0.934 | > 10 |  |  | 0.899 | 8.97 | 0.618 | 0.00793 | 0.73 | 1.26 | 0.985 | > 0.5 | 0.967 | > 10.2 | 0.958 | > 5.12 | 0.656 | 623 | 0.991 | > 5 |
| LB647-SCLC (small cell lung carcinoma, semi-adherent) | 0.985 | > 10 | 0.985 | > 2 |  |  | 0.584 | 0.00699 | 0.794 | 2.68 | 0.955 | > 0.5 |  |  |  |  | 0.972 | > 4000 | 0.985 | > 5 |
| LB2241-RCC (kidney, adherent) | 0.901 | > 10 |  |  | 0.984 | > 10.2 | 0.919 | > 0.064 | 0.974 | > 5.12 | 0.779 | 0.23 | 0.956 | > 10.2 | 0.969 | > 5.12 | 0.896 | > 4000 | 0.884 | > 5 |
| LS-123 (large intestine, adherent) | 0.958 | > 10 |  |  | 0.926 | > 10.2 | 0.966 | > 0.064 | 0.964 | > 5.12 | 0.98 | > 0.5 | 0.967 | > 10.2 | 0.919 | > 5.12 | 0.82 | 3340 | 0.982 | > 5 |
| MHH-NB-11 (neuroblastoma, adherent) |  |  | 0.904 | > 2 | 0.921 | > 10.2 | 0.929 | > 0.064 | 0.843 | 4.15 | 0.984 | > 0.5 | 0.969 | > 10.2 | 0.92 | > 5.12 | 0.937 | > 4000 |  |  |
| MMAC-SF (melanoma, adherent) |  |  | 0.98 | > 2 | 0.951 | > 10.2 | 0.733 | 0.0191 | 0.793 | 2.46 | 0.959 | > 0.5 | 0.963 | > 10.2 | 0.986 | > 5.12 | 0.977 | > 4000 |  |  |
| MOLM-13 (acute myeloid leukaemia, suspension) | 0.965 | > 10 | 0.971 | > 2 | 0.762 | 3.46 | 0.568 | 0.00606 | 0.568 | 0.485 | 0.969 | > 0.5 | 0.695 | 2.16 |  |  | 0.595 | 449 | 0.903 | > 5 |
| MONO-MAC-6 (acute myeloid leukaemia, suspension) | 0.908 | > 10 | 0.899 | > 2 | 0.957 | > 10.2 | 0.657 | 0.0112 | 0.692 |  | 0.945 | > 0.5 | 0.86 | 9.42 |  |  | 0.51 | 266 | 0.974 | > 5 |
| MSTO-211H (mesothelioma, adherent) | 0.991 | > 10 | 0.984 | > 2 | 0.99 | > 10.2 |  |  | 0.977 | > 5.12 | 0.959 | > 0.5 | 0.986 | > 10.2 | 0.988 | > 5.12 | 0.955 | > 4000 | 0.991 | > 5 |
| NCI-H1581 (large cell lung carcinoma, semi-adherent) | 0.938 | > 10 |  |  | 0.951 | > 10.2 | 0.872 | 0.0527 | 0.862 | 3.82 | 0.982 | > 0.5 | 0.983 | > 10.2 | 0.936 | > 5.12 | 0.606 | 478 | 0.99 | > 5 |
| NCI-H1666 (lung adenocarcinoma, semi-adherent) | 0.984 | > 10 |  |  | 0.986 | > 10.2 | 0.971 | > 0.064 | 0.987 | > 5.12 | 0.795 | 0.257 | 0.967 | > 10.2 | 0.982 | > 5.12 | 0.792 | 2010 | 0.987 | > 5 |
| NCI-H1963 (small cell lung carcinoma, suspension) | 0.991 | > 10 |  |  |  |  | 0.719 | 0.0151 | 0.701 | 1.08 | 0.991 | > 0.5 | 0.956 | > 10.2 | 0.989 | > 5.12 | 0.704 | 860 | 0.991 | > 5 |
| NCI-H1975 (lung adenocarcinoma, adherent) | 0.934 | > 10 | 0.968 | > 2 | 0.952 | > 10.2 | 0.541 | 0.00527 | 0.794 | 2.75 |  |  | 0.976 | > 10.2 | 0.954 | > 5.12 | 0.621 | 569 | 0.977 | > 5 |
| ONS-76 (medulloblastoma, adherent) | 0.953 | > 10 | 0.985 | > 2 | 0.813 | 6.09 | 0.493 | 0.00382 | 0.885 | > 5.12 | 0.982 | > 0.5 | 0.965 | > 10.2 | 0.968 | > 5.12 |  |  | 0.877 | > 5 |
| PL-21 (acute myeloid leukaemia, suspension) |  |  |  |  | 0.939 | > 10.2 | 0.734 | 0.0211 | 0.65 | 0.9 | 0.982 | > 0.5 | 0.957 | > 10.2 | 0.888 | > 5.12 | 0.616 | 552 | 0.979 | > 5 |
| RKO (large intestine, adherent) | 0.96 | > 10 | 0.974 | > 2 | 0.927 | > 10.2 | 0.303 | 0.00117 | 0.664 | 0.879 |  |  | 0.987 | > 10.2 | 0.904 | > 5.12 | 0.632 | 562 | 0.975 | > 5 |
| RL95-2 (endometrium, adherent) |  |  |  |  | 0.987 | > 10.2 | 0.613 | 0.00813 | 0.59 | 0.563 | 0.912 | > 0.5 | 0.869 | 9.31 | 0.876 | 5.01 | 0.839 | 2690 |  |  |
| RS4-11 (leukaemia, suspension) | 0.942 | > 10 | 0.88 | 1.76 | 0.733 | 2.74 | 0.566 | 0.00594 | 0.615 | 0.642 |  |  | 0.931 | > 10.2 | 0.812 | 2.46 | 0.459 | 195 | 0.958 | > 5 |
| SCC-15 (head and neck, adherent) | 0.946 | > 10 | 0.96 | > 2 | 0.97 | > 10.2 | 0.652 | 0.0122 | 0.926 | > 5.12 |  |  | 0.826 | 9.36 | 0.846 | > 5.12 | 0.693 | 1060 | 0.89 | > 5 |
| SNU-C1 (large intestine, suspension) | 0.902 | > 10 | 0.898 | > 2 | 0.978 | > 10.2 | 0.834 | > 0.064 | 0.898 | > 5.12 |  |  | 0.979 | > 10.2 | 0.979 | > 5.12 | 0.307 | 55 | 0.976 | > 5 |
